Out of some 310,000 compounds screened, about 2,200 (0.71%) showed an effect of 50% or more. The effect is printed as a negative number. The list shows a part of the results.
Biological target: human ether-à-go-go-related gene (hERG) potassium channel (human, UniProt Q12809)
Assay: primary screen, population patch clamp on CHO cells stably expressing hERG

Chain of human ether-à-go-go-related gene (hERG) potassium channel (Q12809 whole entry, looked up): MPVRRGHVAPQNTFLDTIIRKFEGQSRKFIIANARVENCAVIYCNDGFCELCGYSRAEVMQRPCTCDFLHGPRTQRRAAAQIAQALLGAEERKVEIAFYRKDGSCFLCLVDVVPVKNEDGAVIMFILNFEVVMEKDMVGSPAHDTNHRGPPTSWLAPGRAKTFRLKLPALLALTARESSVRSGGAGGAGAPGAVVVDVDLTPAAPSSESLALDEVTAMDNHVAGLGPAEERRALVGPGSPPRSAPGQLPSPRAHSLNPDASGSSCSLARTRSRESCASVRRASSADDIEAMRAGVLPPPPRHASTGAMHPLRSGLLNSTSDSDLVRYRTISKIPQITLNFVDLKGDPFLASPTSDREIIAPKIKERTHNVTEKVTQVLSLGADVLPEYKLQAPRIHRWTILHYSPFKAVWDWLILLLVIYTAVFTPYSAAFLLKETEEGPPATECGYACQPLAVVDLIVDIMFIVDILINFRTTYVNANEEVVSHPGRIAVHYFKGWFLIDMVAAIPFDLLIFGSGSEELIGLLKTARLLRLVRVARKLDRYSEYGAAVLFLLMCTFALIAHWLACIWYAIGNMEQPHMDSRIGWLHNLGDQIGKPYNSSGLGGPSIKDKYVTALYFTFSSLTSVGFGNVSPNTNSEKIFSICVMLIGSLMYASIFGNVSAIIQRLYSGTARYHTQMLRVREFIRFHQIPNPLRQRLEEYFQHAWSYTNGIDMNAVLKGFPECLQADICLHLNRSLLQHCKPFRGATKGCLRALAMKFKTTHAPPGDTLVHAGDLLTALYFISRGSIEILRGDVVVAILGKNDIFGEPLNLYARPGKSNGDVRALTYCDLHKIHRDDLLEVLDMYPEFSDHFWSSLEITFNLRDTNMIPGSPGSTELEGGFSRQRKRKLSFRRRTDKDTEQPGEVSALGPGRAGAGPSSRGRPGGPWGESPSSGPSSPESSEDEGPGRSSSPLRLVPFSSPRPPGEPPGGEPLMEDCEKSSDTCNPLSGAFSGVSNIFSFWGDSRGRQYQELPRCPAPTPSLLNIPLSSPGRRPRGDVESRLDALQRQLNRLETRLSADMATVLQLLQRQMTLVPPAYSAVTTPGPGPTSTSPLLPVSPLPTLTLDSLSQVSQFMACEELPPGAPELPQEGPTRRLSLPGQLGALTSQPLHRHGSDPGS

| Compound | hERG current change (%, negative = inhibition) at 1uM [%] |
| --- | --- |
| CCOC(=O)CSc1ccc2nnc(-c3ccncc3)n2n1 | -2.76 |
| O=C(CCC(=O)N(CC(=O)NC1CCCCC1)c1ccc2c(c1)OCCO2)Nc1ccccn1 | 11.6 |
| CCCN(CCC)C(=O)CC(c1ccccc1)c1cc(C)ccc1O (stereo not drawn) | -3.91 |
| O=C(Nc1ccc(-c2nc3cccnc3s2)cc1)c1ccco1 | 11.5 |
| O=C(CC1Sc2ccccc2NC1=O)Nc1ccccc1[N+](=O)[O-] (stereo not drawn) | 0.793 |
| COc1ccc(OC)c(Nc2cc(C)nc3nc(C)nn23)c1 | 2.63 |
| CCCCOc1cccc(C(=O)Nc2ccc(S(=O)(=O)Nc3nnc(CC)s3)cc2)c1 | 10.5 |
| CN(C)c1ccc(/C=N/NC(=O)c2ccc3c(c2)OCO3)cc1 | 1.12 |
| Cc1cc(C)c(NC(=O)CCCN2CCCC2)c(C)c1 | 15.5 |
| CC(=O)N1C(=O)C2(C(C#N)=C(N)Oc3c2c(C)nn3-c2ccccc2)c2ccccc21 (stereo not drawn) | 11 |
| CCc1cccc(C)c1NC(=S)NCc1ccc2c(c1)cc(C)n2C | 14.5 |
| CCCS(=O)(=O)c1c(S(=O)(=O)CCC)c2cnccn2c1C(=O)c1ccc(Cl)cc1 | -8.03 |
| O=C(O)c1ccccc1.OC(CNCC1CCCO1)Cn1c2ccccc2c2ccccc21 (stereo not drawn) | 0.168 |
| CCOc1nc(Nc2ccc(OC)c(Cl)c2)nc(OCC)n1 | -2.79 |
| CC(C)(C)NC(=O)COC(=O)c1ccc(O)cc1 | 13.7 |
| COc1ccccc1CNS(=O)(=O)c1ccc2c(c1)CC(C)N2C(=O)C1CCC1 (stereo not drawn) | 17.3 |
| COc1ccc2[nH]cc(CCNS(=O)(=O)Cc3ccccc3)c2c1 | 12.9 |
| CCOc1ccc(S(=O)(=O)NCCC(=O)NC2CCCCC2)cc1 | -3.36 |
| COc1cc(OC)c(OC)cc1CN1CCN(Cc2cccc(F)c2)CC1.O=C(O)C(=O)O | 8.99 |
| CCN(C(=O)CN1C(=O)NC(c2ccccc2)(c2ccc(C)c(C)c2)C1=O)C1CCS(=O)(=O)C1 (stereo not drawn) | 4.47 |
| CC(=O)c1ccc(NC(=O)C(C)N2CCN(C/C=C/c3ccccc3)CC2)cc1 (stereo not drawn) | -41 |
| CC(C)(C)c1ccc(S(=O)(=O)N2CCN(CC(O)COCC3CCCO3)CC2)cc1 (stereo not drawn) | -12.1 |
| O=C(NCCC1=CCCCC1)C1CCN(S(=O)(=O)N2CCCC2)CC1 | 8.62 |
| COc1ccc(CN(CCN(C)C)c2ccccn2)cc1.O=C(O)/C=C\C(=O)O | -0.0995 |
